Assay results published in the supplement of paper PMC9446081.
The whole screen tested about 39,000 compounds, of which about 220 (0.56%) showed activity. The list shows a part of the results.

System: Escherichia coli K-12 BW25113
Experiment: relative growth (OD600 normalised to plate interquartile mean) (fraction); higher = less growth inhibition, active = 0.2 or less
Settings: 50 µM; LB; incubation time: overnight (16-24 h)
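Further: static incubation at 37 °C against the wild-type strain, values averaged over two biological replicates.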

| Structure (SMILES) | relative growth |
| --- | --- |
| COCCNC(=O)C[C@@H]1C[C@@H]2c3cc(NC(=O)COC)ccc3O[C@@H]2[C@@H](CO)O1 | inactive: 0.924 |
| C[C@@H]1CCCCO[C@@H](CN(C)S(C)(=O)=O)[C@@H](C)CN([C@H](C)CO)C(=O)c2cc(NS(=O)(=O)c3ccccc3)ccc2O1 | inactive: 0.988 |
| CNC[C@H]1OCCCC[C@@H](C)Oc2ccc(NC(=O)c3ccncc3)cc2C(=O)N([C@@H](C)CO)C[C@H]1C | inactive: 1.01 |
| C[C@@H]1CN([C@@H](C)CO)C(=O)c2cc(NS(=O)(=O)c3cccs3)ccc2O[C@@H]1CN(C)Cc1ccc(Cl)c(Cl)c1 | inactive: 0.978 |
| CN1CCN(C(c2ccccc2)c2ccccc2)CC1 | inactive: 1.13 |
| C[C@@H]1CN([C@H](C)CO)C(=O)c2cccc(NC(=O)C3CC3)c2O[C@H]1CN(C)S(=O)(=O)c1cn(C)cn1 | inactive: 1.01 |
| CC(C)NC(=O)N(C)C[C@@H]1OCCCC[C@H](C)Oc2ccc(NC(=O)Nc3cccc4ccccc34)cc2C(=O)N([C@@H](C)CO)C[C@H]1C | inactive: 0.988 |
| COc1ccc(S(=O)(=O)N[C@H]2CC[C@H](CC(=O)N3CCN(c4ccccc4)CC3)O[C@@H]2CO)cc1 | inactive: 0.997 |
| CC[C@@H](N)Cn1c(=O)oc2ccccc21 | inactive: 0.932 |
| C[C@H]1CN([C@@H](C)CO)C(=O)Cc2cc(NS(=O)(=O)c3cn(C)cn3)ccc2O[C@@H]1CN(C)Cc1ccc(C(=O)Nc2ccccc2N)cc1 | inactive: 1.03 |
| COc1ccc(S(=O)(=O)N(C)C[C@@H]2Oc3c(NC(=O)C4CCOCC4)cccc3C(=O)N([C@H](C)CO)C[C@@H]2C)cc1 | inactive: 0.951 |
| COc1ccc(S(=O)(=O)N(C)C[C@@H]2OCCCC[C@H](C)Oc3ccc(NC(=O)Nc4ccc(F)cc4)cc3C(=O)N([C@@H](C)CO)C[C@H]2C)cc1 | inactive: 1.01 |
| Cc1cc(=S)oc2ccccc12 | inactive: 0.943 |
| CO[C@H]1CN(C)C(=O)c2ccc(NC(=O)c3ccc(F)cc3)cc2OC[C@@H](C)N(C(=O)CN(C)C)C[C@H]1C | inactive: 0.949 |
| Cc1noc(C)c1S(=O)(=O)Nc1cccc2c1O[C@@H](CN(C)CC1CC1)[C@@H](C)CN([C@H](C)CO)C2=O | inactive: 1.02 |
| COCCNC(=O)C[C@H]1C[C@H]2c3cc(NS(C)(=O)=O)ccc3O[C@H]2[C@H](CO)O1 | inactive: 1.01 |
| CN(CC(=O)O)C(=N)N | inactive: 1.01 |
| CO[C@@H]1CN(C)C(=O)c2cc(NS(=O)(=O)c3cn(C)cn3)ccc2OC[C@@H](C)N(CC2CC2)C[C@H]1C | inactive: 0.994 |
| O=C1CO[C@@H](c2ccccc2)CN1 | inactive: 1.01 |

| Structure (SMILES) | relative growth |
| --- | --- |
| COc1ccc(CN(C)C[C@H]2OCCCC[C@H](C)Oc3ccc(NS(=O)(=O)c4cccs4)cc3C(=O)N([C@H](C)CO)C[C@H]2C)cc1 | inactive: 0.997 |
| C[C@H]1CN([C@@H](C)CO)C(=O)Cc2cc(NC(=O)Nc3ccc(C(F)(F)F)cc3)ccc2O[C@H]1CN(C)Cc1ccc(C(F)(F)F)cc1 | inactive: 1.02 |
| C[C@@H]1CCCCO[C@@H](CN(C)S(=O)(=O)c2ccc(Cl)cc2)[C@H](C)CN([C@H](C)CO)C(=O)c2cc(NC(=O)Nc3ccc(C(F)(F)F)cc3)ccc2O1 | inactive: 1.03 |
| C[C@@H]1CCCCO[C@@H](CN(C)C(=O)c2ccccc2)[C@@H](C)CN([C@@H](C)CO)C(=O)c2cc(NC(=O)NC3CCCCC3)ccc2O1 | inactive: 0.995 |
| C[C@H]1CCCCO[C@H](CN(C)Cc2ccc3c(c2)OCO3)[C@@H](C)CN([C@@H](C)CO)C(=O)c2cc(NC(=O)Nc3ccccc3)ccc2O1 | inactive: 1.03 |
| C[C@@H]1CN([C@H](C)CO)C(=O)c2cc(NC(=O)Nc3cccc4ccccc34)ccc2O[C@@H](C)CCCCO[C@H]1CN(C)C | inactive: 1.02 |
| C[C@@H]1CN([C@@H](C)CO)C(=O)c2cc(NC(=O)Nc3ccc(C(F)(F)F)cc3)ccc2O[C@@H](C)CCCCO[C@@H]1CN(C)C(=O)CCCN(C)C | inactive: 0.946 |
| C[C@H]1CCCCO[C@@H](CN(C)C(=O)Nc2ccc(C(F)(F)F)cc2)[C@@H](C)CN([C@@H](C)CO)C(=O)c2cc(NC(=O)Nc3ccc4c(c3)OCO4)ccc2O1 | inactive: 0.993 |
| C[C@H](CO)N1C[C@H](C)[C@H](CN(C)Cc2ccc(Oc3ccccc3)cc2)Oc2c(NS(=O)(=O)c3ccc(Cl)cc3)cccc2C1=O | inactive: 1.03 |
| C[C@H]1CN([C@@H](C)CO)C(=O)Cc2cc(NC(=O)Nc3cc(Cl)cc(Cl)c3)ccc2O[C@H]1CN(C)S(=O)(=O)c1ccc(Cl)cc1 | inactive: 1.01 |
| C[C@H](CO)N1C[C@H](C)[C@@H](CN(C)C(=O)Nc2ccc3c(c2)OCO3)OCCCC[C@H](C)Oc2ccc(NS(=O)(=O)c3ccccc3)cc2C1=O | inactive: 1.06 |
| COc1ccc(CN(C)C[C@@H]2OCCCC[C@H](C)Oc3ccc(NS(=O)(=O)c4cccs4)cc3C(=O)N([C@H](C)CO)C[C@@H]2C)cc1 | inactive: 1.01 |
| O=C(O)CNC(=O)[C@H]1COc2ccccc2O1 | inactive: 1.04 |
| O=C(C[C@@H]1CC[C@H]2[C@@H](COC[C@@H](O)CN2S(=O)(=O)c2ccc(F)cc2)O1)NCCN1CCCCC1 | inactive: 0.967 |
| Cc1noc(C)c1NC(=O)Nc1ccc2c(c1)CC(=O)N([C@@H](C)CO)C[C@@H](C)[C@H](CN(C)S(=O)(=O)c1cccs1)O2 | inactive: 1.01 |
| C[C@H](CO)N1C[C@H](C)[C@H](CN(C)S(=O)(=O)c2cccs2)Oc2ncc(C#Cc3cccc(F)c3)cc2C1=O | inactive: 1.04 |
| Cc1ccc(S(=O)(=O)Nc2ccc3c(c2)C(=O)N([C@H](C)CO)C[C@H](C)[C@H](CN(C)C(=O)Nc2ccccc2)OCCCC[C@@H](C)O3)cc1 | inactive: 1 |
| CC(C)N1C[C@H](C)[C@@H](CN(C)Cc2ccc(Oc3ccccc3)cc2)Oc2c(cccc2-c2nnc(-c3ccncc3)o2)C1=O | inactive: 1.02 |
| C[C@H](CO)N1C[C@H](C)[C@@H](CN(C)C(=O)Nc2cccc3ccccc23)OCc2cn(nn2)CCCC1=O | inactive: 1.01 |
